These results are taken from ChEMBL document CHEMBL4888484, “Replenishing the malaria drug discovery pipeline: Screening and hit evaluation of the MMV Hit Generation Library 1 (HGL1) against asexual blood stage Plasmodium falciparum ,using a nano luciferase reporter read-out” (2022).

Among all 150,000 compounds or so, about 540 (0.36%) showed an effect of 50% or more. The list shows a part of the results.

The test has as its system Plasmodium falciparum. The test is described as follows: Primary screen in NF54 nanoGlo assay, in single point, at 2uM, 72h; a lower Z score goes with more inhibition. Particulars: timepoint 72 hour. In kind it is functional, Erythrocyte.
For orientation: % Inhibition means the relative decrease from the control value, in per cent. Take `CCCN1CCN(C(=O)c2nn(CC)c3c2COCC3)CC1`: the “% Inhibition” value is recorded as -6% and the Z score stood at 1.01.

As for `Cc1cc(CS(=O)(=O)CC(=O)N2CCc3ccccc3C2)on1`, the “% Inhibition” value was found to be 2% and the Z score is recorded as -0.31.

On to `NS(=O)(=O)c1ccc(Cl)c(Cl)c1Cl`, for which the “% Inhibition” value is reported as -5% and the Z score amounted to 0.95.

For `c1c(CN2CCOCC23CC3)sc2c1CNCC2`, the “% Inhibition” value is listed as -10% and the Z score is on record as 1.03.

In the case of `Cc1cccn2cc(C(=O)N3CCO[C@H](c4ncon4)C3)cc12`, the “% Inhibition” value is recorded as 1% and the Z score was -0.17.

Turning to `COc1ccc(CNC(=O)CC[C@@H]2CNC(=O)[C@@H]3C[C@H](NCc4ccccc4)CN23)cc1`, the “% Inhibition” value is on record as 9% and the Z score is -1.04.

In the case of `COc1ccc(-n2cccn2)c(CN2C[C@H]3CC(=O)NCCN(C)C(=O)c4cccc(OC)c4OCc4cn(nn4)[C@H]3C2)c1`, the “% Inhibition” value was -3% and the Z score is reported as 0.55.

For `CCS(=O)(=O)NC[C@H](C)N(C)Cc1cccc(OC)c1`, the “% Inhibition” value was -2% and the Z score turned out to be 0.35.

`CCCS(=O)(=O)N[C@H]1CC(=O)N(C(C)(C)C)C1`: the “% Inhibition” value is recorded as 3% and the Z score was -0.5.

As to `Cn1cc(S(N)(=O)=O)c(C2CCCC2)n1`, the “% Inhibition” value is 8% and the Z score is recorded as -1.33.

As for `O=S(=O)(NC1CCC(F)(F)CC1)C1CC1`, the “% Inhibition” value was -11% and the Z score was 1.44.

For the molecule `Cc1ccc(C(N)=O)cc1NCc1ccn(C)c(=O)c1`, the “% Inhibition” value came out at 0% and the Z score is listed as -0.04.

`CC1CN(S(=O)(=O)N(C)C)CC(C)O1` (configuration not stated): the “% Inhibition” value came to 4% and the Z score is recorded as -0.57.

Consider `COc1cc([C@@H]2c3cccn3CCCN2Cc2ccc(N(C)C)cc2)cc(OC)c1OC`, for which the “% Inhibition” value is -1% and the Z score came to 0.18.

For the molecule `O=C(CN1CCN(S(=O)(=O)c2ccc(F)cc2)CC1)NC1CCCCCC1`, the “% Inhibition” value is reported as -11% and the Z score is reported as 1.4.

Turning to `COc1ccc(OC)c(CCN2C(=O)CC[C@@]2(C)C(=O)NC2CCCC2)c1`, the “% Inhibition” value is -2% and the Z score is listed as 0.18.

`CN(Cc1nnc2ccccn12)c1snc2ccccc12`: the “% Inhibition” value was -13% and the Z score came to 1.44.

In the case of `O=C1CN(C(=O)c2cccnc2Nc2ccccc2F)CCN1`, the “% Inhibition” value is recorded as 1% and the Z score is -0.22.

In the case of `Cc1ncc(-c2cc(C(=O)N3CCC[C@H](C)C3)c3ccc(C)c(C)c3n2)cn1`, the “% Inhibition” value is -11% and the Z score came to 1.5.

For `Cc1nn(CC(=O)N[C@H]2CC(=O)N(Cc3cccc(F)c3)C2)c(C)c1C`, the “% Inhibition” value is listed as -5% and the Z score amounted to 0.49.

As for `C[C@H]1CN(C(=O)c2onc3c2CCCC3)CCC1(F)F`, the “% Inhibition” value was -7% and the Z score amounted to 1.36.

For `O=c1[nH]c(-c2cccnc2)nc2c1CCC2`, the “% Inhibition” value is on record as -3% and the Z score was determined as 0.6.

Turning to `CCO[C@@H](C)C(=O)Nc1cnns1`, the “% Inhibition” value was determined as 31% and the Z score was -4.03.

With `CCCc1noc(-c2ccc3nnc(CC(=O)NC4CCCC4)n3c2)n1`, the “% Inhibition” value was -24% and the Z score was 3.79.

With `CCOC(=O)c1ccccc1OCc1cc([C@H]2Nc3ccccc3C(=O)N2c2ccc(OC)cc2)ccc1OC`, the “% Inhibition” value is reported as 2% and the Z score was -0.2.

`CCN(CC)c1ccc(C(=O)NC[C@H]2CCS(=O)(=O)C2)cn1`: the “% Inhibition” value is listed as -26% and the Z score came out at 2.32.

As to `O=S(=O)(c1ccccc1)N1CCC(n2ccnn2)CC1`, the “% Inhibition” value was -7% and the Z score came out at 1.09.

As for `Cc1ccc(OC2CCN(Cc3ccncc3)CC2)c(C(=O)N2CCCCO2)c1`, the “% Inhibition” value is listed as -10% and the Z score is on record as 0.86.

`CN(C)c1ccc(C(=O)N2CC(O)(CO)C2)cc1`: the “% Inhibition” value is 4% and the Z score is given as -0.73.

Turning to `O=C1CCNC(=O)C2(CCN(C(=O)C3CCC3)CC2)Cc2cccc(c2)Oc2ccc(cc2)C[C@@H](C(=O)O)N1`, the “% Inhibition” value is -16% and the Z score amounted to 2.08.

Consider `CC[C@@H](CO)N1CCN(c2nnc(Cc3ccccc3)s2)CC1`, for which the “% Inhibition” value was -6% and the Z score was found to be 0.82.

As to `CN(Cc1ccco1)C(=O)c1cc(NC(=O)C2CCC2)c2c(c1)nc(-c1ccncc1)n2C`, the “% Inhibition” value is 9% and the Z score is given as -1.21.

Turning to `CC(C)(C)c1ccc(C(=O)N2CCC[C@H](c3nc(O)c4nnn(Cc5cccc(F)c5)c4n3)C2)cc1`, the “% Inhibition” value is 6% and the Z score is recorded as -0.72.

With `O=S(=O)(c1ccc(F)cc1)N1CCN(CC2CC3C=CC2C3)CC1` (configuration not stated), the “% Inhibition” value is -5% and the Z score was 0.7.

Regarding `CC1(C)CN(C(=O)[C@H]2C[C@@H]2c2cccc(Cl)c2)[C@H]2COC[C@H]21`, the “% Inhibition” value is -9% and the Z score is reported as 1.39.

Consider `COC(=O)CC1(NCC(=O)Nc2ccc(C(C)C)cc2)CCS(=O)(=O)CC1`, for which the “% Inhibition” value is reported as -12% and the Z score came to 2.11.

`Cc1nc2n(n1)CC(NC1CCCN(C(=O)OC(C)(C)C)C1)CC2` (configuration not stated): the “% Inhibition” value is reported as -10% and the Z score was 1.86.

Take `O=S(=O)(C[C@H]1CCCO1)NC1CCC2(CC1)CC2`: the “% Inhibition” value is -1% and the Z score worked out at 0.07.

For the molecule `CCN(Cc1cnn(CC)c1)C(=O)c1cccc(NCc2cccs2)c1`, the “% Inhibition” value was -6% and the Z score worked out at 0.6.

Regarding `COc1ccc(C(=O)N2CCC[C@H](c3ccccc3C)C2)c(F)c1F`, the “% Inhibition” value worked out at 10% and the Z score is reported as -1.25.

Turning to `CCNC(=O)N[C@H]1CO[C@H]2[C@@H]1OC[C@@H]2Nc1nccc(-c2ccccc2OC)n1`, the “% Inhibition” value is recorded as 7% and the Z score was -0.77.
